# Source: the antibiotic and cytotoxicity screens of Wong et al. (2023)
# The other results are listed elsewhere or left out.
# Tested on: S. aureus RN4220
# Test: growth inhibition call (relative growth <= 0.2)
# Settings: 50 µM
row,SMILES,growth inhibition call
1,CC(=O)N(C)C[C@H]1Oc2ncc(C#C[C@H](C)O)cc2C(=O)N([C@H](C)CO)C[C@@H]1C,inactive
2,COc1cc2c(cc1OC)CN(C(=O)[C@H]1[C@@H]3C(=O)O[C@@H](c4ccccc4)[C@@H](c4ccccc4)N3[C@@H](c3ccc(O)cc3)[C@]13C(=O)Nc1ccc(C#CC4(O)CCCCCC4)cc13)CC2,inactive
3,Cc1ccc(S(=O)(=O)N(C)C[C@@H]2Oc3c(NC(=O)C4CCOCC4)cccc3C(=O)N([C@H](C)CO)C[C@@H]2C)cc1,inactive
4,O=C(O)c1cncc(C(=O)O)c1,inactive
5,COc1ccc(CN(C)C[C@@H]2Oc3c(NC(=O)Nc4ccc(C(F)(F)F)cc4)cccc3C(=O)N([C@H](C)CO)C[C@H]2C)cc1,inactive
6,Cc1noc(C)c1S(=O)(=O)Nc1cccc2c1O[C@@H](CN(C)CC1CC1)[C@@H](C)CN([C@@H](C)CO)C2=O,inactive
7,Nc1cnc2ncc(N)cc2c1,inactive
8,CN(Cc1ccc(/C=C/C(=O)Nc2ccc(-c3cccs3)cc2N)cc1)CC12CC3CC(CC(C3)C1)C2,inactive
9,CC(=O)NC1C(O)CC(O)(C(=O)O)OC1C(O)C(O)CO (stereo not drawn),inactive
10,COc1ccc(C(=O)Nc2cccc(CN3C(=O)[C@@]4(O[C@@H](CC(=O)N5Cc6ccccc6C[C@H]5CO)[C@H]([Si](C)(C)c5ccc(OC)cc5)[C@H]4C)c4ccccc43)c2)cc1,inactive
11,COc1ccc(CN(C)C[C@@H]2OCCCC[C@@H](C)Oc3ccc(NC(=O)Nc4ccc(F)cc4)cc3C(=O)N([C@H](C)CO)C[C@H]2C)cc1,inactive
12,CS(=O)(=O)N1C[C@H]2C[C@@H](F)[C@@H](O)[C@@H]2C1,inactive
13,C[C@@H]1CCCCO[C@H](CN(C)Cc2ccccc2)[C@H](C)CN([C@H](C)CO)C(=O)c2cc(NC(=O)C3CCCCC3)ccc2O1,inactive
14,CC(=O)O[C@@H](C)C[N+](C)(C)C,inactive
15,CC(C)=CCOc1cc2oc(=O)ccc2cc1O,inactive
16,Cc1noc(C)c1NC(=O)N(C)C[C@@H]1OCCCC[C@H](C)Oc2ccc(NC(=O)C3CCCCC3)cc2C(=O)N([C@H](C)CO)C[C@@H]1C,inactive
17,COc1ccc([Si](C)(C)[C@H]2[C@H](CC(=O)N3Cc4ccccc4C[C@H]3CO)O[C@@]3(C(=O)N(Cc4ccc(N5CCOC5=O)cc4)c4ccccc43)[C@@H]2C)cc1,inactive
18,C[C@@H]1CN([C@@H](C)CO)C(=O)c2cc(NC(=O)Nc3cccc4ccccc34)ccc2O[C@@H]1CN(C)Cc1ccc(C(=O)O)cc1,inactive
19,C=CCN1C(=O)[C@]2(O[C@H](CCO)[C@@H]([Si](C)(C)c3ccc(OC)cc3)[C@@H]2C)c2cc(N3C(=O)c4cccc5cccc3c45)ccc21,inactive
20,CN1C(=O)c2cc(NS(=O)(=O)c3ccc(F)cc3)ccc2OC[C@H]2O[C@H](CC(=O)NCC(F)(F)F)CC[C@H]21,inactive
21,CC1(C)S[C@@H]2[C@H](NC(=O)C3(N)CCCCC3)C(=O)N2[C@H]1C(=O)O,active
22,CN1C(=O)c2cc(NC(=O)c3ccc(F)cc3)ccc2OC[C@@H]2O[C@H](CC(=O)N3CCOCC3)CC[C@H]21,inactive
23,CCOC[C@@H](O)CN,inactive
